Test results: article PMC9217984
Results are given in words; binding and its absence hold for the method and conditions named. In cells and extracts the contact can be indirect. Some results given as binding are weak or reduced against the parent protein; the word gives no strength.

The chains behind the UniProt entries cited, without tags or fusion partners. Where a name states a change or a piece, a line headed by the entry shows the natural chain unless it says otherwise. Residues count along the entry.
UniProt Q96FW1: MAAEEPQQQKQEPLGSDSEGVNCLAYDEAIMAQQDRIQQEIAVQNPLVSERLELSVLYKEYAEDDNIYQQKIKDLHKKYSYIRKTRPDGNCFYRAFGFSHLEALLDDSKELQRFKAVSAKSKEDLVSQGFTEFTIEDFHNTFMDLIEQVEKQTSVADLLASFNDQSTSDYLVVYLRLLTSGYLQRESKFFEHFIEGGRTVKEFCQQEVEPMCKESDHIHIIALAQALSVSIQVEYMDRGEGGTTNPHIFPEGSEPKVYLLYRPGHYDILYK
Flag-OTUB1-N (1–80 aa): residues 1-80 of Q96FW1
Flag-OTUB1-C (81–271 aa): residues 81-271 of Q96FW1
UniProt Q16665: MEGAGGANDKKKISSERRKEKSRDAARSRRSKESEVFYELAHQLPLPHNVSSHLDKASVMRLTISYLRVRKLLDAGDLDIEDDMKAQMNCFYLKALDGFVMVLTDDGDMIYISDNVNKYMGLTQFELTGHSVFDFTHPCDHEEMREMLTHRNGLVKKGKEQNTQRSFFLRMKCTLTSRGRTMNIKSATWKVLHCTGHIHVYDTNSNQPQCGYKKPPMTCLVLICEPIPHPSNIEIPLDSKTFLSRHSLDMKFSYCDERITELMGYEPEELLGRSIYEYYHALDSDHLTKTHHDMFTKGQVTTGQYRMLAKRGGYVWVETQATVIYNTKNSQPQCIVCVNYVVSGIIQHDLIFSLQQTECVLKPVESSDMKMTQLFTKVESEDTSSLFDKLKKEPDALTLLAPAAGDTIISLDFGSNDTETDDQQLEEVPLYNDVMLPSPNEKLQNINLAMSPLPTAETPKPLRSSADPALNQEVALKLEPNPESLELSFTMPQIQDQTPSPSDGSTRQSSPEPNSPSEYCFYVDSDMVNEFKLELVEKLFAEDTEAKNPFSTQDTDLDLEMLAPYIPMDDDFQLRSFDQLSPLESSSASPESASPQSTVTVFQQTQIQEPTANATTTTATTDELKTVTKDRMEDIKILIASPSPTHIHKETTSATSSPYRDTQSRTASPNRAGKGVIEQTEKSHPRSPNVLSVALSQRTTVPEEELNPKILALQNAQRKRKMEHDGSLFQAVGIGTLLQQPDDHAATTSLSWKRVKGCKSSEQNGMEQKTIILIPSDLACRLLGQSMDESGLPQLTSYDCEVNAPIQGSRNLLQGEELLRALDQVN

What was measured:
Experiment in all cases: co-IP; HEK293T cells co-transfected, 24 h (normoxia, 21% O2); anti-Flag antibody-conjugated agarose beads for immunoprecipitation, immunoblotting
Flag-OTUB1 = Flag-OTUB1 (UniProt Q96FW1)
Flag-OTUB1-C91A = Flag-OTUB1-C91A (UniProt Q96FW1)
Flag-OTUB1-D88A = Flag-OTUB1-D88A (UniProt Q96FW1)
Flag-OTUB1-C (81–271 aa) = Flag-OTUB1-C (81–271 aa) (UniProt Q96FW1)
Flag-OTUB1-N (1–80 aa) = Flag-OTUB1-N (1–80 aa) (UniProt Q96FW1)

## Myc-HIF-1α (from UniProt Q16665 1-826)
Flag-OTUB1
  binding: binds
Flag-OTUB1-C91A
  binding: binds
Flag-OTUB1-D88A
  binding: binds
Flag-OTUB1-C (81–271 aa)
  binding: binds
Flag-OTUB1-N (1–80 aa)
  binding: no binding
